Reference: the supplement of paper PMC9151546
Repeats are few or missing, and single values can be far off.

Tests used:
[1] = system: CHO-K1; assay: relative survival (nuclei to bead ratio vs DMSO control) (% of vehicle control); higher = more surviving cells
Experimental: (§1)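 Flow-cytometric in vitro micronucleus assay (Litron MicroFlow) in CHO-K1 cells in 96-well plates, 19 concentrations (4.5-200 µM, n=1 per concentration). Without S9, cells were exposed for 24 h and sampled at 48 h. With Aroclor 1254-induced rat liver S9, cells were exposed for 3-4 h and sampled at 27-28 h. Read-outs are %MN and %hypodiploid nuclei relative to nucleated events, and relative survival as the nuclei-to-bead ratio versus the 1% DMSO vehicle control (x100).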

[2] = system: CHO-K1; assay: micronucleus frequency (% of nucleated events); higher = more micronuclei (genotoxic)
[3] = system: CHO-K1; assay: hypodiploid nuclei frequency (% of nucleated events); higher = more hypodiploid events (aneugenic)
Experimental: as §1

[4] = concentration: 4.5 (µM), S9 metabolic activation: with S9, exposure time: 3-4 hours
[5] = concentration: 4.5 (µM), S9 metabolic activation: without S9, exposure time: 24 hours
[6] = concentration: 5.63 (µM), S9 metabolic activation: with S9, exposure time: 3-4 hours
[7] = concentration: 5.63 (µM), S9 metabolic activation: without S9, exposure time: 24 hours
[8] = concentration: 7.04 (µM), S9 metabolic activation: with S9, exposure time: 3-4 hours
[9] = concentration: 7.04 (µM), S9 metabolic activation: without S9, exposure time: 24 hours
[10] = concentration: 8.8 (µM), S9 metabolic activation: with S9, exposure time: 3-4 hours
[11] = concentration: 8.8 (µM), S9 metabolic activation: without S9, exposure time: 24 hours
[12] = concentration: 11 (µM), S9 metabolic activation: with S9, exposure time: 3-4 hours
[13] = concentration: 11 (µM), S9 metabolic activation: without S9, exposure time: 24 hours
[14] = concentration: 13.7 (µM), S9 metabolic activation: with S9, exposure time: 3-4 hours
[15] = concentration: 13.7 (µM), S9 metabolic activation: without S9, exposure time: 24 hours
[16] = concentration: 17.2 (µM), S9 metabolic activation: with S9, exposure time: 3-4 hours
[17] = concentration: 17.2 (µM), S9 metabolic activation: without S9, exposure time: 24 hours
[18] = concentration: 21.5 (µM), S9 metabolic activation: with S9, exposure time: 3-4 hours
[19] = concentration: 21.5 (µM), S9 metabolic activation: without S9, exposure time: 24 hours
[20] = concentration: 26.8 (µM), S9 metabolic activation: with S9, exposure time: 3-4 hours
[21] = concentration: 26.8 (µM), S9 metabolic activation: without S9, exposure time: 24 hours
[22] = concentration: 33.6 (µM), S9 metabolic activation: with S9, exposure time: 3-4 hours
[23] = concentration: 33.6 (µM), S9 metabolic activation: without S9, exposure time: 24 hours
[24] = concentration: 41.9 (µM), S9 metabolic activation: with S9, exposure time: 3-4 hours
[25] = concentration: 41.9 (µM), S9 metabolic activation: without S9, exposure time: 24 hours
[26] = concentration: 52.4 (µM), S9 metabolic activation: with S9, exposure time: 3-4 hours
[27] = concentration: 52.4 (µM), S9 metabolic activation: without S9, exposure time: 24 hours
[28] = concentration: 65.5 (µM), S9 metabolic activation: with S9, exposure time: 3-4 hours
[29] = concentration: 65.5 (µM), S9 metabolic activation: without S9, exposure time: 24 hours
[30] = concentration: 81.9 (µM), S9 metabolic activation: with S9, exposure time: 3-4 hours
[31] = concentration: 81.9 (µM), S9 metabolic activation: without S9, exposure time: 24 hours
[32] = concentration: 102 (µM), S9 metabolic activation: with S9, exposure time: 3-4 hours
[33] = concentration: 102 (µM), S9 metabolic activation: without S9, exposure time: 24 hours
[34] = concentration: 128 (µM), S9 metabolic activation: with S9, exposure time: 3-4 hours
[35] = concentration: 128 (µM), S9 metabolic activation: without S9, exposure time: 24 hours
[36] = concentration: 160 (µM), S9 metabolic activation: with S9, exposure time: 3-4 hours
[37] = concentration: 160 (µM), S9 metabolic activation: without S9, exposure time: 24 hours
[38] = concentration: 200 (µM), S9 metabolic activation: with S9, exposure time: 3-4 hours
[39] = concentration: 200 (µM), S9 metabolic activation: without S9, exposure time: 24 hours
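Throughout, for hypodiploid nuclei frequency (% of nucleated events): hypodiploid nuclei gated on a flow cytometer with 488 nm excitation after SYTOX Green staining, cultures at 37 °C, positive controls vinblastine without S9 and cyclophosphamide with S9.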
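Throughout, for micronucleus frequency (% of nucleated events): cells lysed with nuclei stained by SYTOX Green, then micronucleus-gated events counted against nucleated events by flow cytometry with 488 nm excitation.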
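Throughout, for relative survival (nuclei to bead ratio vs DMSO control): Lysed-cell nuclei stained with SYTOX Green and counted against counting beads by flow cytometry at 488 nm excitation, with vinblastine (no S9) and cyclophosphamide (plus S9) as positive controls.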

Q: `OCCNCCO` [Diethanolamine] was tested. Which relative survival [1, 4] did it give?
A: 80.8

Q: And the relative survival [1, 5]?
A: 99.4

Q: What about the relative survival [1, 6] of the same compound?
A: 70.7

Q: And the relative survival [1, 7]?
A: 88.2

Q: What about the relative survival [1, 8] of the same compound?
A: 69

Q: And the relative survival [1, 9]?
A: 93.1

Q: What about the relative survival [1, 10] of the same compound?
A: 86.2

Q: And the relative survival [1, 11]?
A: 66.9

Q: What about the relative survival [1, 12] of the same compound?
A: 73.5

Q: What about the relative survival [1, 13] of the same compound?
A: 68.5

Q: What about the relative survival [1, 14] of the same compound?
A: 81.9

Q: What about the relative survival [1, 15] of the same compound?
A: 73.5

Q: And the relative survival [1, 16]?
A: 95.9

Q: And the relative survival [1, 17]?
A: 65.7

Q: And the relative survival [1, 18]?
A: 95.9

Q: And the relative survival [1, 19]?
A: 73.1

Q: What about the relative survival [1, 20] of the same compound?
A: 77

Q: And the relative survival [1, 21]?
A: 109

Q: What about the relative survival [1, 22] of the same compound?
A: 121

Q: And the relative survival [1, 23]?
A: 94.5

Q: And the relative survival [1, 24]?
A: 99.9

Q: What about the relative survival [1, 25] of the same compound?
A: 105

Q: What about the relative survival [1, 26] of the same compound?
A: 78.9

Q: And the relative survival [1, 27]?
A: 108

Q: And the relative survival [1, 28]?
A: 84.5

Q: And the relative survival [1, 29]?
A: 93.5

Q: What about the relative survival [1, 30] of the same compound?
A: 96.6

Q: What about the relative survival [1, 31] of the same compound?
A: 98.2

Q: And the relative survival [1, 32]?
A: 79.1

Q: And the relative survival [1, 33]?
A: 87.3

Q: And the relative survival [1, 34]?
A: 92.4

Q: What about the relative survival [1, 35] of the same compound?
A: 99.4

Q: What about the relative survival [1, 36] of the same compound?
A: 111

Q: What about the relative survival [1, 37] of the same compound?
A: 94.2

Q: And the relative survival [1, 38]?
A: 156

Q: What about the relative survival [1, 39] of the same compound?
A: 85.5

Q: And the micronucleus frequency [2, 4]?
A: 1.72%

Q: What about the micronucleus frequency [2, 5] of the same compound?
A: 1.58%

Q: And the micronucleus frequency [2, 6]?
A: 2.24%

Q: And the micronucleus frequency [2, 7]?
A: 2.92%

Q: And the micronucleus frequency [2, 8]?
A: 1.46%

Q: And the micronucleus frequency [2, 9]?
A: 3.3%

Q: And the micronucleus frequency [2, 10]?
A: 0.78%

Q: And the micronucleus frequency [2, 11]?
A: 2.08%

Q: What about the micronucleus frequency [2, 12] of the same compound?
A: 1.58%

Q: What about the micronucleus frequency [2, 13] of the same compound?
A: 3.1%

Q: And the micronucleus frequency [2, 14]?
A: 1.74%

Q: And the micronucleus frequency [2, 15]?
A: 1.58%

Q: And the micronucleus frequency [2, 16]?
A: 1.64%

Q: And the micronucleus frequency [2, 17]?
A: 3.3%

Q: What about the micronucleus frequency [2, 18] of the same compound?
A: 1.82%

Q: What about the micronucleus frequency [2, 19] of the same compound?
A: 2.38%

Q: What about the micronucleus frequency [2, 20] of the same compound?
A: 1%

Q: What about the micronucleus frequency [2, 21] of the same compound?
A: 1.6%

Q: What about the micronucleus frequency [2, 22] of the same compound?
A: 1.6%

Q: And the micronucleus frequency [2, 23]?
A: 1.98%

Q: And the micronucleus frequency [2, 24]?
A: 2.24%

Q: And the micronucleus frequency [2, 25]?
A: 1.74%

Q: What about the micronucleus frequency [2, 26] of the same compound?
A: 1.84%

Q: And the micronucleus frequency [2, 27]?
A: 1.96%

Q: And the micronucleus frequency [2, 28]?
A: 2.14%

Q: What about the micronucleus frequency [2, 29] of the same compound?
A: 2.16%

Q: And the micronucleus frequency [2, 30]?
A: 1.78%

Q: What about the micronucleus frequency [2, 31] of the same compound?
A: 2.22%

Q: And the micronucleus frequency [2, 32]?
A: 1.94%

Q: And the micronucleus frequency [2, 33]?
A: 2.06%

Q: And the micronucleus frequency [2, 34]?
A: 1.72%

Q: What about the micronucleus frequency [2, 35] of the same compound?
A: 2.1%

Q: And the micronucleus frequency [2, 36]?
A: 2.14%

Q: What about the micronucleus frequency [2, 37] of the same compound?
A: 2.48%

Q: What about the micronucleus frequency [2, 38] of the same compound?
A: 1.8%

Q: And the micronucleus frequency [2, 39]?
A: 2.68%

Q: And the hypodiploid nuclei frequency [3, 4]?
A: 0.2%

Q: And the hypodiploid nuclei frequency [3, 5]?
A: 0.72%

Q: What about the hypodiploid nuclei frequency [3, 6] of the same compound?
A: 0.38%

Q: And the hypodiploid nuclei frequency [3, 7]?
A: 0.68%

Q: What about the hypodiploid nuclei frequency [3, 8] of the same compound?
A: 0.3%

Q: And the hypodiploid nuclei frequency [3, 9]?
A: 1.1%

Q: And the hypodiploid nuclei frequency [3, 10]?
A: 0.24%

Q: What about the hypodiploid nuclei frequency [3, 11] of the same compound?
A: 1%

Q: What about the hypodiploid nuclei frequency [3, 12] of the same compound?
A: 0.18%

Q: And the hypodiploid nuclei frequency [3, 13]?
A: 1.08%

Q: What about the hypodiploid nuclei frequency [3, 14] of the same compound?
A: 0.26%

Q: What about the hypodiploid nuclei frequency [3, 15] of the same compound?
A: 0.54%

Q: And the hypodiploid nuclei frequency [3, 16]?
A: 0.3%

Q: What about the hypodiploid nuclei frequency [3, 17] of the same compound?
A: 1.34%

Q: What about the hypodiploid nuclei frequency [3, 18] of the same compound?
A: 0.3%

Q: What about the hypodiploid nuclei frequency [3, 19] of the same compound?
A: 0.82%

Q: And the hypodiploid nuclei frequency [3, 20]?
A: 0.1%

Q: And the hypodiploid nuclei frequency [3, 21]?
A: 0.52%

Q: What about the hypodiploid nuclei frequency [3, 22] of the same compound?
A: 0.22%

Q: And the hypodiploid nuclei frequency [3, 23]?
A: 0.74%

Q: What about the hypodiploid nuclei frequency [3, 24] of the same compound?
A: 0.38%

Q: And the hypodiploid nuclei frequency [3, 25]?
A: 0.88%

Q: And the hypodiploid nuclei frequency [3, 26]?
A: 0.28%

Q: What about the hypodiploid nuclei frequency [3, 27] of the same compound?
A: 0.78%

Q: And the hypodiploid nuclei frequency [3, 28]?
A: 0.28%

Q: What about the hypodiploid nuclei frequency [3, 29] of the same compound?
A: 1.28%

Q: What about the hypodiploid nuclei frequency [3, 30] of the same compound?
A: 0.42%

Q: And the hypodiploid nuclei frequency [3, 31]?
A: 1.34%

Q: And the hypodiploid nuclei frequency [3, 32]?
A: 0.2%

Q: And the hypodiploid nuclei frequency [3, 33]?
A: 1.56%

Q: And the hypodiploid nuclei frequency [3, 34]?
A: 0.18%

Q: What about the hypodiploid nuclei frequency [3, 35] of the same compound?
A: 1.48%

Q: And the hypodiploid nuclei frequency [3, 36]?
A: 0.26%

Q: What about the hypodiploid nuclei frequency [3, 37] of the same compound?
A: 2.18%

Q: And the hypodiploid nuclei frequency [3, 38]?
A: 0.26%

Q: What about the hypodiploid nuclei frequency [3, 39] of the same compound?
A: 2.12%
